Test results from PMC9911399.
The other results are listed elsewhere or left out.

Target: T1, RBFOX1 RRM (Homo sapiens) (UniProt Q9NWB1)
T1 sequence: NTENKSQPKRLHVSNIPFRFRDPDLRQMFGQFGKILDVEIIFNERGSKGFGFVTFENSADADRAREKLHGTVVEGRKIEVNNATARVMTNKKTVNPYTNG
Assay: EMSA
Settings: HiTS-Eq, 1 nM pool, 10 min; buffer printed only for the single-RNA assays: 10 mM Tris pH 7.5, 150 mM NaCl, 3.4 mM EDTA, 0.001% NP-40, 30 C

Sequence	binding signal (KA relative to UGCAUGU)
GGGAGACCGGAAUUCAGAUUGUCCCCCUCCAUUAAAUCCCGUCGUAGCCACCA / CAATCTGAATTCCGGTCTCCC / TGGTGGCTACGACGGGATT	0.00488
GGGAGACCGGAAUUCAGAUUGUCCGGUCUAGUUAAAUCCCGUCGUAGCCACCA / CAATCTGAATTCCGGTCTCCC / TGGTGGCTACGACGGGATT	0.00915
GGGAGACCGGAAUUCAGAUUGUCCGGCCCACUUAAAUCCCGUCGUAGCCACCA / CAATCTGAATTCCGGTCTCCC / TGGTGGCTACGACGGGATT	0.00146
GGGAGACCGGAAUUCAGAUUGUCCGGUCAUCUUAAAUCCCGUCGUAGCCACCA / CAATCTGAATTCCGGTCTCCC / TGGTGGCTACGACGGGATT	0.00192
GGGAGACCGGAAUUCAGAUUGUCCCCCGGAAUUAAAUCCCGUCGUAGCCACCA / CAATCTGAATTCCGGTCTCCC / TGGTGGCTACGACGGGATT	0.0202
GGGAGACCGGAAUUCAGAUUGUCCCCCGAUCUUAAAUCCCGUCGUAGCCACCA / CAATCTGAATTCCGGTCTCCC / TGGTGGCTACGACGGGATT	0.0119
GGGAGACCGGAAUUCAGAUUGUCCGGUCGCCUUAAAUCCCGUCGUAGCCACCA / CAATCTGAATTCCGGTCTCCC / TGGTGGCTACGACGGGATT	0.00378
GGGAGACCGGAAUUCAGAUUGUCCGAUCCCCUUAAAUCCCGUCGUAGCCACCA / CAATCTGAATTCCGGTCTCCC / TGGTGGCTACGACGGGATT	0.00406
GGGAGACCGGAAUUCAGAUUGUCCCCCCUCCUUAAAUCCCGUCGUAGCCACCA / CAATCTGAATTCCGGTCTCCC / TGGTGGCTACGACGGGATT	0.000743
GGGAGACCGGAAUUCAGAUUGUCCCCCAACCUUAAAUCCCGUCGUAGCCACCA / CAATCTGAATTCCGGTCTCCC / TGGTGGCTACGACGGGATT	0.00622
GGGAGACCGGAAUUCAGAUUGUCCCCCAACAUUAAAUCCCGUCGUAGCCACCA / CAATCTGAATTCCGGTCTCCC / TGGTGGCTACGACGGGATT	0.00306
GGGAGACCGGAAUUCAGAUUGUCCCCCCAACUUAAAUCCCGUCGUAGCCACCA / CAATCTGAATTCCGGTCTCCC / TGGTGGCTACGACGGGATT	0.00312
GGGAGACCGGAAUUCAGAUUGUCCUCUCCCCUUAAAUCCCGUCGUAGCCACCA / CAATCTGAATTCCGGTCTCCC / TGGTGGCTACGACGGGATT	0.0106
GGGAGACCGGAAUUCAGAUUGUCCCCCUCUAUUAAAUCCCGUCGUAGCCACCA / CAATCTGAATTCCGGTCTCCC / TGGTGGCTACGACGGGATT	0.000282
GGGAGACCGGAAUUCAGAUUGUCCGGUCCAGUUAAAUCCCGUCGUAGCCACCA / CAATCTGAATTCCGGTCTCCC / TGGTGGCTACGACGGGATT	0.00709
GGGAGACCGGAAUUCAGAUUGUCCCCCACAAUUAAAUCCCGUCGUAGCCACCA / CAATCTGAATTCCGGTCTCCC / TGGTGGCTACGACGGGATT	0.00445
GGGAGACCGGAAUUCAGAUUGUCCCCCCCAGUUAAAUCCCGUCGUAGCCACCA / CAATCTGAATTCCGGTCTCCC / TGGTGGCTACGACGGGATT	0.00076
GGGAGACCGGAAUUCAGAUUGUCCCGUCUCCUUAAAUCCCGUCGUAGCCACCA / CAATCTGAATTCCGGTCTCCC / TGGTGGCTACGACGGGATT	0.0179
GGGAGACCGGAAUUCAGAUUGUCCUCUCCCUUUAAAUCCCGUCGUAGCCACCA / CAATCTGAATTCCGGTCTCCC / TGGTGGCTACGACGGGATT	0.00629

Sequence	binding signal (KA relative to UGCAUGU)
GGGAGACCGGAAUUCAGAUUGUCCGGUCCAAUUAAAUCCCGUCGUAGCCACCA / CAATCTGAATTCCGGTCTCCC / TGGTGGCTACGACGGGATT	0.00374
GGGAGACCGGAAUUCAGAUUGUCCCCCACGAUUAAAUCCCGUCGUAGCCACCA / CAATCTGAATTCCGGTCTCCC / TGGTGGCTACGACGGGATT	0.00247
GGGAGACCGGAAUUCAGAUUGUCCCCCCCCCUUAAAUCCCGUCGUAGCCACCA / CAATCTGAATTCCGGTCTCCC / TGGTGGCTACGACGGGATT	0.0143
GGGAGACCGGAAUUCAGAUUGUCCUACUCCCUUAAAUCCCGUCGUAGCCACCA / CAATCTGAATTCCGGTCTCCC / TGGTGGCTACGACGGGATT	0.00122
GGGAGACCGGAAUUCAGAUUGUCCCCCUCCGUUAAAUCCCGUCGUAGCCACCA / CAATCTGAATTCCGGTCTCCC / TGGTGGCTACGACGGGATT	0.00818
GGGAGACCGGAAUUCAGAUUGUCCGGCUCUCUUAAAUCCCGUCGUAGCCACCA / CAATCTGAATTCCGGTCTCCC / TGGTGGCTACGACGGGATT	0.00035
GGGAGACCGGAAUUCAGAUUGUCCCGGUCCCUUAAAUCCCGUCGUAGCCACCA / CAATCTGAATTCCGGTCTCCC / TGGTGGCTACGACGGGATT	0.0116
GGGAGACCGGAAUUCAGAUUGUCCGGUCUGAUUAAAUCCCGUCGUAGCCACCA / CAATCTGAATTCCGGTCTCCC / TGGTGGCTACGACGGGATT	0.0219
GGGAGACCGGAAUUCAGAUUGUCCCCCAAACUUAAAUCCCGUCGUAGCCACCA / CAATCTGAATTCCGGTCTCCC / TGGTGGCTACGACGGGATT	0.00243
GGGAGACCGGAAUUCAGAUUGUCCAUCUCCCUUAAAUCCCGUCGUAGCCACCA / CAATCTGAATTCCGGTCTCCC / TGGTGGCTACGACGGGATT	0.00326
GGGAGACCGGAAUUCAGAUUGUCCCCCCAUCUUAAAUCCCGUCGUAGCCACCA / CAATCTGAATTCCGGTCTCCC / TGGTGGCTACGACGGGATT	0.00562
GGGAGACCGGAAUUCAGAUUGUCCGGACCCCUUAAAUCCCGUCGUAGCCACCA / CAATCTGAATTCCGGTCTCCC / TGGTGGCTACGACGGGATT	0.0146
GGGAGACCGGAAUUCAGAUUGUCCUCCCCCCUUAAAUCCCGUCGUAGCCACCA / CAATCTGAATTCCGGTCTCCC / TGGTGGCTACGACGGGATT	0.00206
GGGAGACCGGAAUUCAGAUUGUCCUCCUCCCUUAAAUCCCGUCGUAGCCACCA / CAATCTGAATTCCGGTCTCCC / TGGTGGCTACGACGGGATT	0.0127
GGGAGACCGGAAUUCAGAUUGUCCCCCUACAUUAAAUCCCGUCGUAGCCACCA / CAATCTGAATTCCGGTCTCCC / TGGTGGCTACGACGGGATT	0.00906
GGGAGACCGGAAUUCAGAUUGUCCCCCAUCAUUAAAUCCCGUCGUAGCCACCA / CAATCTGAATTCCGGTCTCCC / TGGTGGCTACGACGGGATT	0.00334
GGGAGACCGGAAUUCAGAUUGUCCCCCGAACUUAAAUCCCGUCGUAGCCACCA / CAATCTGAATTCCGGTCTCCC / TGGTGGCTACGACGGGATT	0.00073
GGGAGACCGGAAUUCAGAUUGUCCGGCUUCCUUAAAUCCCGUCGUAGCCACCA / CAATCTGAATTCCGGTCTCCC / TGGTGGCTACGACGGGATT	0.00915
GGGAGACCGGAAUUCAGAUUGUCCCUCCCCCUUAAAUCCCGUCGUAGCCACCA / CAATCTGAATTCCGGTCTCCC / TGGTGGCTACGACGGGATT	0.00211
